Measurements as given in PubChem BioAssay AID445 (National Center for Advancing Translational Sciences (NCATS), 2006).
Among all 110,000 compounds or so, about 40 (0.04%) were called active. The shares of active, inactive and inconclusive entries below differ from those in the screen. Calls come from the whole dose curve; as a rule, active = well fitted curve in the direction sought with a large enough effect in the signal ratio (not every such curve was filed as active); inconclusive = small, poorly fitted or top-dose-only effect, or a change in a side signal; inactive = flat fitted curve, though single readings scatter; the % refers to the signal ratio. A potency beside an inconclusive call is a rough fit, not a confirmed value.
Potency is the fitted concentration of half-maximal effect.

Assay: IkB Signaling;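 for IkBa stabilization activation: 0% = basal untreated cells and 100% = reference inhibitor full response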
Settings: ABC-DLBCL IkBa-CBG/CBR dual luciferase ratio (green luciferase fused to IkBa over red control in OCI-Ly3 lymphoma cells), 4 h; IkBa stabilization activation: at 57.1 µM (top of the series), scaled: untreated 0%, proteasome inhibitor 100% unless noted
Outline: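 Curves were fitted separately to fusion (green), unfused (red) and ratio luminescence, then classed by r2, magnitude and activity. Cells: OCI-Ly3, 4 h compound plus doxycycline at 37C; 10 uM MG-132 defined full response.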
For `Cc1ccc(-n2nc3c(N4CCC(C(=O)N(C)Cc5ccccc5)CC4)nnc(C)c3c2C)cc1`, the IkBa stabilization activation was inconclusive: -1.44% [signal inhibitor].
With `Cn1cnnc1Sc1nc2ccccc2nc1NS(=O)(=O)c1ccccc1` the IkBa stabilization activation was inconclusive: 4.79% [signal inhibitor].
With `COc1ccc(OC)c(S(=O)(=O)Nc2ccc(C(N)=O)cc2)c1` the IkBa stabilization activation was “inactive”.
For `CC(=O)N1c2ccc(S(=O)(=O)NCC3CCC(C(=O)Nc4cc(C)cc(C)c4)CC3)cc2CC1C` (configuration not stated), the IkBa stabilization activation was inconclusive: -0.964% [signal inhibitor].
In the case of `CC(=O)Nc1ccc(S(=O)(=O)Nc2nc3n(n2)C(c2ccccc2)C=C(c2ccc(Cl)cc2)N3)cc1` (configuration not stated), the IkBa stabilization activation is reported as inconclusive: 2.7% [signal inhibitor].
With `O=C(NCCN1CCCCC1)c1ccc(Cn2c(SCc3ccc(F)cc3)nc3cccnc32)cc1` the IkBa stabilization activation was inconclusive: 5.86% [signal inhibitor].
With `CN(C)c1ccc(CN(Cc2ccco2)C(=O)c2ccc(F)cc2)cc1` the IkBa stabilization activation was inconclusive: 3.89% [signal inhibitor].
In the case of `CCNc1ncc2nc(-c3ccc(Cl)cc3)c(=O)n(-c3ccc(OC)cc3)c2n1`, the IkBa stabilization activation is reported as inactive: -1.5% [at 11.4 µM, scaled: untreated 0%, proteasome inhibitor 100%].
For `COc1ccc(-c2nc3sc(CCNS(=O)(=O)c4c(C)cc(C)cc4C)c(C)n3n2)cc1`, the IkBa stabilization activation was inconclusive: 4.34% [signal inhibitor].
In the case of `Cc1c(C(=O)OCC2CCCO2)[nH]c2c1C(=O)CC(c1ccc(N(C)C)cc1)C2` (configuration not stated), the IkBa stabilization activation is reported as inconclusive: 18.2% [signal activator].
For `Cc1cc(SCC(=O)Nc2nsc(-c3ccc(C(C)(C)C)cc3)n2)nc2ccccc12`, the IkBa stabilization activation was inconclusive: 2.39% [signal inhibitor].
For `COc1cccc(N2CCN(C(=O)c3c4c(nc5ccccc35)C(=O)N(C3CCCCC3)C4)CC2)c1`, the IkBa stabilization activation was inconclusive: 1.23% [signal inhibitor].
For `CN(C)CCSc1nnc(-c2ccccc2)o1`, the Potency was inconclusive: 10 µM [signal inhibitor, partial curve].
For `CCOC(=O)Cn1c(=O)oc2cc(S(=O)(=O)N3CCCC(C)C3)ccc21` (configuration not stated), the IkBa stabilization activation was inconclusive: 3.36% [signal inhibitor].
For `Cc1ccc(C(=O)CSc2nnc(COc3cccc(C)c3)o2)cc1`, the IkBa stabilization activation was inconclusive: 15.2% [signal inhibitor].
For `Cc1cccn2c(=O)c3cc(C(=O)NC4CCCC4)c(=N)n(C4CCCC4)c3nc12`, the IkBa stabilization activation was “inactive”.
For `O=C(NC1=NCCS1)c1ccncc1`, the IkBa stabilization activation was “inactive”.
For `COC(=O)c1c(-c2ccc(Cl)cc2)noc1N1CCN(c2cccc(C)c2C)CC1`, the IkBa stabilization activation was “inactive”.
With `CCc1nc(SCC(=O)Nc2ccc3c(c2)OCCO3)c2oc3ccccc3c2n1` the IkBa stabilization activation was “inactive”.
With `CCOc1ccc(-c2n[nH]c(C)c2-c2ccccc2OC)c(O)c1` the IkBa stabilization activation was inconclusive: 5.87% [signal inhibitor].
In the case of `CCCCOC(=O)Cn1nnc2sc(-c3ccccc3)cc2c1=O`, the IkBa stabilization activation is reported as inconclusive: 6.12% [signal inhibitor].
With `O=C(CSc1ncc(-c2ccccc2)[nH]1)Nc1ccc(F)cc1F` the IkBa stabilization activation was inconclusive: 12.1% [signal inhibitor].
With `CCSc1nc2c(c(=O)n(C)c(=O)n2C)n1Cc1ccc(Cl)cc1` the IkBa stabilization activation was inconclusive: 1.41% [signal inhibitor].
With `Cc1ccccc1Cc1c(C)nc2c(C(=O)N3CCN(Cc4ccc5c(c4)OCO5)CC3)cnn2c1C` the IkBa stabilization activation was “inactive”.
For `CCc1ccccc1N1C(=O)N(CC(=O)c2ccc(Cl)cc2)c2ccccc2S1(=O)=O`, the IkBa stabilization activation was inconclusive: 1.08% [signal inhibitor].
For `CCOC(=O)c1ccc(NCn2c(=O)oc3ccccc32)cc1`, the Potency was inconclusive: 2.51 µM [signal inhibitor, full curve].
In the case of `CCOc1ccc(C2=C(C(=O)CC)Sc3nncn3N2C(=O)CC)cc1`, the Potency is reported as inconclusive: 31.6 µM [rising, single point].
With `O=C(Nc1ccc(Cl)cc1)c1cc(S(=O)(=O)N2CCCc3ccccc32)ccc1F` the IkBa stabilization activation was inconclusive: 1.87% [signal inhibitor].
In the case of `CCOC(=O)c1noc2ncn(Cc3cccc(C#N)c3)c(=O)c12`, the IkBa stabilization activation is reported as inconclusive: 1.41% [signal inhibitor].
For `O=C(CCCn1c(=O)[nH]c2ccsc2c1=O)N1CCN(c2cccc(C(F)(F)F)c2)CC1`, the IkBa stabilization activation was inconclusive: 15.5% [signal inhibitor].
For `COc1ccccc1CN(Cc1ccco1)c1cnc(S(C)(=O)=O)nc1C(=O)Nc1ccccc1Cl`, the IkBa stabilization activation was “inactive”.
In the case of `CCOC(=O)c1ccccc1NC(=O)c1c(O)c2ccccc2n(CC)c1=O`, the Potency is reported as inconclusive: 0.2 µM [signal inhibitor, full curve].
In the case of `CCc1nnc(NC(=O)CSc2ncc(-c3ccccc3)n2C)s1`, the IkBa stabilization activation is reported as inconclusive: 2.82% [signal inhibitor].
For `CCc1cccc(C)c1NC(=O)NC1COc2ccccc2C1` (configuration not stated), the IkBa stabilization activation was “inactive”.
With `CC(C)C[C@H](N)c1nnc(S(=O)(=O)Cc2cccc(F)c2)o1` the IkBa stabilization activation was inconclusive: -0.575% [signal inhibitor].
In the case of `CC1CCC2CC1C2(C)C` (configuration not stated), the IkBa stabilization activation is reported as “inactive”.
In the case of `Cc1ccc(C)c(NC(=O)c2nnn(Cc3ccccc3C)c2N)c1`, the IkBa stabilization activation is reported as inconclusive: 4.13% [signal inhibitor].
For `COc1ccc(NCc2cc3cc4c(cc3n(CC(=O)Nc3ccccc3)c2=O)OCO4)cc1`, the Potency was inconclusive: 25.1 µM [signal inhibitor, single point].
For `CCOC(=O)Cc1ccc(NC(=O)N(C(C)C)C2CCN(C(C)=O)CC2)cc1`, the IkBa stabilization activation was inconclusive: 3.66% [signal inhibitor].
With `CCCOc1ccc(/C(O)=C2/C(=O)C(=O)N(c3cc(C)on3)C2c2ccc(C(=O)OC)cc2)cc1` (configuration not stated) the IkBa stabilization activation was “inactive”.
In the case of `CCOc1ccc(CNC(=O)Cn2cc3c(n2)-c2c(oc(C(=O)N4CCCC4)c2C)CC3)cc1`, the IkBa stabilization activation is reported as inconclusive: -2.29% [signal inhibitor].
With `CCCC1=Nc2cc(C(=O)NCC(C)c3ccccc3)ccc2Sc2ccccc21` (configuration not stated) the IkBa stabilization activation was inconclusive: 2.3% [signal inhibitor].
With `Cc1ccc(C2c3c(-c4ccccc4O)n[nH]c3C(=O)N2CCc2ccccc2)cc1` (configuration not stated) the IkBa stabilization activation was inconclusive: -3.31% [signal inhibitor].
With `CCOC(=O)C(C(=O)OCC)c1cc(Br)c2noc3c2c1C(=O)c1ccccc1-3` the IkBa stabilization activation was inconclusive: 5.62%.
In the case of `CCCNC(=O)c1c(NC(=O)c2ccccc2F)sc2c1CCCCC2`, the Potency is reported as inconclusive: 20 µM [signal inhibitor].
With `NC(CSS(=O)(=O)O)=N[C@@H]1C[C@H]2CC[C@@H]1C2` the IkBa stabilization activation was inactive: 1.96% [at 11.4 µM, scaled: untreated 0%, proteasome inhibitor 100%].
In the case of `Cc1ccc(-c2nc(C(=O)Nc3cccc(C#N)c3)c3n2CCCCC3)cc1`, the Potency is reported as inconclusive: 0.631 µM [signal inhibitor, partial curve].
For `Cn1c(CN2CCOCC2)nc2cc(NC(=O)c3ccc(F)cc3)ccc21`, the Potency was inconclusive: 20 µM [signal inhibitor, partial curve].
With `O=C1c2ccccc2C(=O)C1(c1ccccc1)N1CCN(c2cccc(C(F)(F)F)c2)CC1` the IkBa stabilization activation was inconclusive: 4.99% [signal inhibitor].
In the case of `CCOc1ccccc1NC(=O)CCc1nc(-c2cccc(C)c2)no1`, the IkBa stabilization activation is reported as inconclusive: -1.9% [signal inhibitor].
For `COc1ccc(-c2nc(SCC(=O)Nc3ccc4c(c3)OCO4)c(-c3ccc(F)cc3)[nH]2)cc1OC`, the IkBa stabilization activation was inconclusive: 5.08% [signal inhibitor].
In the case of `CCN(CC(=O)Nc1c(C(=O)OC)[nH]c2ccccc12)c1ccc2c(c1)OCO2`, the IkBa stabilization activation is reported as inconclusive: 0.0587% [signal inhibitor].
In the case of `COc1cc2c(C(=O)NCc3ccccn3)cn(CC(C)C)c(=O)c2cc1OC`, the IkBa stabilization activation is reported as “inactive”.
With `COc1ccc(N2CCN(C(=O)c3c(C)oc4nc(C)nc(N5CCCC5)c34)CC2)cc1` the IkBa stabilization activation was inconclusive: -1.89% [signal inhibitor].
In the case of `Nc1ccc(C2CCCc3nonc32)c2nonc12` (configuration not stated), the Potency is reported as inconclusive: 31.6 µM [signal inhibitor, partial curve].
With `COc1ccc(-c2nc(C)c(CCNC(=O)c3cccs3)s2)cc1` the IkBa stabilization activation was inconclusive: 5.79% [signal inhibitor].
In the case of `CC1CN(S(=O)(=O)c2cn(C)c(=O)n(C)c2=O)CC(C)O1` (configuration not stated), the IkBa stabilization activation is reported as inconclusive: 4.91% [signal inhibitor].
With `O=c1c(-c2ccccc2)nc2cnc(N3CCOCC3)nc2n1C[C@H]1CCCO1` the IkBa stabilization activation was inactive: -2.23% [at 11.4 µM, scaled: untreated 0%, proteasome inhibitor 100%].
For `CCOc1ccc(OCc2ccc(C(=O)Nc3ccc(Cl)cn3)o2)cc1`, the IkBa stabilization activation was inconclusive: 18% [signal inhibitor].
With `CC[N+](CC)(CC)CCOc1ccc(/C=C\c2ccccc2)cc1` the IkBa stabilization activation was “inactive”.
In the case of `O=C(Nc1ccc(F)cc1)c1ccc(S(=O)(=O)NCC2CCCO2)cc1` (configuration not stated), the IkBa stabilization activation is reported as “inactive”.
For `Cc1ccccc1-c1nnc(SCC(=O)N2CCCc3ccccc32)o1`, the IkBa stabilization activation was inconclusive: 4.41% [signal inhibitor].
With `O=C(NCc1cccs1)c1cc2c(s1)CCCC2` the IkBa stabilization activation was inconclusive: 3.36% [signal inhibitor].
In the case of `COc1cc(Cl)c(C)cc1NC(=O)c1nn(-c2ccc(C)cc2)c(=O)n(C)c1=O`, the IkBa stabilization activation is reported as inconclusive: 5.03% [signal inhibitor].
In the case of `O=C(c1cc2nc(-c3ccco3)cc(C(F)(F)F)n2n1)N1CCCCCC1`, the IkBa stabilization activation is reported as “inactive”.
For `COc1cccc(NC(=O)CSc2c(C)cnc3c2c(=O)n(C)c(=O)n3C)c1`, the IkBa stabilization activation was inconclusive: 6.67% [signal activator].
For `COc1ccc2oc(=O)c(C(=O)N3CCN(c4cc(Cl)ccc4Cl)CC3)cc2c1`, the IkBa stabilization activation was inconclusive: 5.57% [signal inhibitor].
